From PubChem BioAssay AID463173 (ICCB-Longwood Screening Facility, Harvard Medical School, 2010)
Screen size: about 52,000 compounds; about 4,300 (8.3%) were called active. Cut-off read from the data, not from the text of the source: active = survival mostly below about 52% (no sharp cut-off); inactive = mostly above about 56%. This is one part of the list.

tested on: DeltatarO mutant; assay: growth inhibition of S. aureus wild type versus tarO mutant, primary screen, teichoic acid synthesis inhibitors, RN4220, OD600 (AID 463173); conditions: OD600, 18 h, stronger effect = lower value, screened at 18.75 µg/mL (by protocol)

Cc1ccc(N2CC(NC(=O)C3CCCCC3)CC2=O)cc1C (stereo not drawn) was tested. Which survival did it give?
Its survival is inactive: 102%.

For CCOC(=O)CC(N)c1ccc2c(c1)OCO2 (stereo not drawn), which survival is on record?
The survival was inactive: 73%.

Which survival does the source give for CCc1ccccc1Nc1nn2c(=O)c3ccc(C(=O)NC4CCCCC4)cc3nc2s1 here?
Its survival is inactive: 75%.

For CCOC(=O)c1c(N)n(-c2cccc(C)c2C)c2nc3ccccc3nc12, which survival is on record?
The survival was inactive: 67%.

How did the survival turn out when Cc1ccn2c(=O)c(C(=O)NCc3ccccc3Cl)c(O)nc2c1 was run?
Its survival is inactive: 81%.

How did the survival turn out when COc1cc(OC)c(NC(=O)c2c3c(nn2C)-c2ccccc2SC3)cc1Cl was run?
Its survival is inactive: 114%.

With CC(=O)N1CCN(c2nc(N3CCCCC3)nc(N3CCCCC3)n2)CC1 as the compound, how does the survival read?
Its survival is inactive: 79%.

Which survival does the source give for Cc1ccc(-n2ncc(C(=O)Nc3c(Cl)cccc3Cl)c2C2CCNCC2)cc1 here?
The survival was inactive: 131%.

For Cc1nn(-c2ccccc2)c2sc(C(=O)Nc3cccc(O)c3)cc12, which survival is on record?
Its survival is active: 5%.

How did the survival turn out when Cc1ccc(-c2nc(CS(=O)(=O)CC(=O)Nc3cc(C)ccc3C)c(C)o2)cc1 was run?
Its survival is inactive: 122%.

Which survival does the source give for Cn1c(=O)cc(OCC(=O)NCc2ccc(F)cc2Cl)c2ccccc21 here?
Its survival is inactive: 126%.

Which survival does the source give for Cc1csc2nc(COc3ccccc3NC(=O)c3ccccc3Cl)cc(=O)n12 here?
Its survival is inactive: 77%.

With COc1cc(CN(C(=O)COc2ccc(Cl)c(C)c2)c2ccccn2)cc(OC)c1OC as the compound, how does the survival read?
The survival was inactive: 62%.

With CCC(C)NC(=O)c1ccc2nc(Cc3ccccc3)oc2c1 (stereo not drawn) as the compound, how does the survival read?
Its survival is inactive: 102%.

Which survival does the source give for COc1ccc(-c2nc3scc(CCNC(=O)Cc4ccc(F)cc4)n3n2)cc1 here?
Its survival is inactive: 95%.

With O=C(Nc1cc(Cl)cc(Cl)c1)c1ccc(F)c(S(=O)(=O)NCc2ccccc2Cl)c1 as the compound, how does the survival read?
Its survival is inactive: 93%.

CCN(c1ccccc1)S(=O)(=O)c1nnc(NC(=O)c2ccco2)s1 was tested. Which survival did it give?
Its survival is active: 39%.

CCOc1ccc(NS(=O)(=O)c2ccc3nc(-c4ccccc4)[nH]c3c2)cc1 was tested. Which survival did it give?
Its survival is inactive: 64%.

Cc1cccc(-c2nc(CSCC(=O)N3CCN(c4cccc(C)c4C)CC3)c(C)o2)c1 was tested. Which survival did it give?
Its survival is active: 8%.

With Cc1ccc(C)c(N2CCN(S(=O)(=O)c3cc(C(=O)Nc4cc(Cl)cc(Cl)c4)ccc3F)CC2)c1 as the compound, how does the survival read?
The survival was inactive: 87%.

For O=C(CSc1nc(-c2cccs2)nc2cc(=O)[nH]n12)Nc1ccccc1Cl, which survival is on record?
Its survival is inactive: 76%.

How did the survival turn out when COc1cc(C2CC(=O)Nc3c2c(C)nn3-c2nncc(-c3ccccc3)n2)cc(OC)c1OC (stereo not drawn) was run?
Its survival is inactive: 56%.

With O=C(Nc1ccccc1Cl)c1cc2c(-c3ccccc3)nn(-c3ccccc3)c2s1 as the compound, how does the survival read?
The survival was inactive: 56%.

How did the survival turn out when CC(=O)Nc1nnc(SCC(=O)N2C(C)CCCC2C)s1 (stereo not drawn) was run?
Its survival is inactive: 54%.

For Cc1ccc2nc(-c3ccc(Cl)c(NC(=O)c4ccc(Br)o4)c3)oc2c1, which survival is on record?
The survival was inactive: 48%.

CSc1nc2c([nH]c3ccccc32)c(=O)n1-c1ccc(C)cc1 was tested. Which survival did it give?
The survival was inactive: 87%.

With CSc1ccc(CCNC(=O)c2ccc(CS(=O)Cc3ccc(Cl)cc3)o2)cc1 (stereo not drawn) as the compound, how does the survival read?
The survival was inactive: 63%.

Which survival does the source give for CCC(=O)Nc1cc2c(cc1C(=O)CC)OCCO2 here?
The survival was inactive: 106%.

Which survival does the source give for C=CCn1c(=O)[nH]c2c1c(=O)n(C)c(=O)n2C here?
The survival was inactive: 80%.

For CC(=O)N1N=C(c2ccc(C)cc2)CC1c1cn(-c2ccccc2)nc1-c1cccs1 (stereo not drawn), which survival is on record?
The survival was inactive: 140%.

CSc1ccc(CCNC(=O)c2ccc(-n3c(C)cc4c3CCCC4)cc2)cc1 was tested. Which survival did it give?
The survival was inactive: 71%.

For O=C(OCc1cc(=O)n2nc(-c3cccs3)sc2n1)c1ccc(F)cc1, which survival is on record?
Its survival is inactive: 84%.

How did the survival turn out when COc1ccc(Nc2ncc3c(n2)CCN(Cc2ccc(Br)s2)C3)c(OC)c1 was run?
The survival was inactive: 122%.

Which survival does the source give for Cc1ccc2nc3c(cc(C#N)c(=O)n3-c3nnc(SCc4ccccc4Cl)s3)c(=O)n2c1 here?
The survival was inactive: 89%.

For COc1ccc(/C=C/c2nc(C#N)c(N3CCC(C)CC3)o2)cc1OC, which survival is on record?
The survival was inactive: 81%.

How did the survival turn out when CCOc1ccc(CNS(=O)(=O)c2ccc(-c3cc(C(F)(F)F)on3)s2)cc1 was run?
Its survival is inactive: 76%.

How did the survival turn out when Cc1ccc2nc3sc(C(N)=O)c(N)c3cc2c1 was run?
Its survival is inactive: 54%.

For CCOC(=O)c1ccc(NC(=O)C2CCN(S(=O)(=O)c3ccc(C)cc3)CC2)cc1, which survival is on record?
Its survival is inactive: 61%.

For Cc1cccc(/C=N/NC(=O)c2ccccn2)c1O, which survival is on record?
Its survival is active: 5%.

Which survival does the source give for COc1ccccc1CNC(=O)CS(=O)Cc1nc(-c2ccc(OC)c(OC)c2)oc1C (stereo not drawn) here?
The survival was inactive: 127%.

CC(=O)c1nn(-c2ccc(OC(F)(F)F)cc2)nc1Nc1ccc(C)cc1 was tested. Which survival did it give?
The survival was inactive: 89%.

How did the survival turn out when CCC1CN(C(=O)N2CCC(C(=O)O)CC2)c2cc(C)ccc2O1 (stereo not drawn) was run?
The survival was inactive: 71%.

Cc1ccc(CCNC(=O)c2ccc(CSCc3ccccc3C)o2)cc1 was tested. Which survival did it give?
Its survival is active: 32%.

With COc1ccc(Nc2cc(C)c3cc(NC(=O)Cc4c(F)cccc4Cl)ccc3n2)cc1 as the compound, how does the survival read?
The survival was inactive: 75%.

Which survival does the source give for CCN(Cc1ccccc1)C(=O)C1CCN(S(=O)(=O)c2c(C)noc2/C=C/c2ccc(C)cc2)CC1 here?
Its survival is inactive: 97%.

C=CCn1c(CCc2ccc(OC(C)C)cc2)n[nH]c1=S was tested. Which survival did it give?
Its survival is inactive: 71%.

Which survival does the source give for Cc1ccc2nc(-c3ccc(NC(=O)COc4ccc(Cl)c(C)c4)cc3)sc2c1 here?
The survival was inactive: 74%.

For COc1ccc(S(=O)(=O)N2CCN(c3cccc(Cl)c3C)CC2)cc1OC, which survival is on record?
Its survival is inactive: 83%.

With CC(Sc1nnc(C2CCCCC2)n1-c1cccc(Cl)c1)C(=O)O (stereo not drawn) as the compound, how does the survival read?
Its survival is inactive: 110%.

With Cc1ccc(C)c(N2CCN(C(=O)c3ccc4[nH]c(C)c(C)c4c3)CC2)c1 as the compound, how does the survival read?
Its survival is inactive: 80%.

With Cc1ccccc1-c1nnc(SCC(=O)N2c3ccccc3Sc3ccccc32)o1 as the compound, how does the survival read?
The survival was inactive: 86%.

How did the survival turn out when CCn1c(SCc2ccccc2F)nc(=O)c2c(C(=O)OC)cc(C3CC3)nc21 was run?
The survival was active: 52%.

With Fc1ccc(C(c2nnnn2C2CCCC2)N(Cc2ccccc2)Cc2ccco2)cc1 (stereo not drawn) as the compound, how does the survival read?
Its survival is inactive: 68%.

How did the survival turn out when CCCNc1ccc(-c2nc(-c3ccncc3)no2)cc1[N+](=O)[O-] was run?
Its survival is inactive: 72%.

CCOc1ccc(Cl)cc1C1CC(=O)Nc2cc(OC)c(OC)c(OC)c21 (stereo not drawn) was tested. Which survival did it give?
The survival was inactive: 103%.

Cc1cccc(N2CCN(C(=O)c3ccc(NC(=O)c4nsc5ccccc45)cc3)CC2C)c1 (stereo not drawn) was tested. Which survival did it give?
The survival was inactive: 70%.

O=C(NCc1ccncc1)C1CCN(S(=O)(=O)c2ccccc2)CC1 was tested. Which survival did it give?
Its survival is inactive: 89%.

With Cc1ccc(NC(=O)CN2C(=O)CCc3cc(S(=O)(=O)N4CCCCC4)ccc32)cc1N(C)C as the compound, how does the survival read?
Its survival is inactive: 80%.
